2 molecules from patent publication US20250340661A1, “ANTI CD40 ANTIBODY, ANTIGEN BINDING FRAGMENT AND MEDICAL USE THEREOF” (Jiangsu Hengrui Pharmaceuticals Co., Ltd., priority 2021, published 2025) can be followed below.

For series [1], the target named is T1, CD40 (Homo sapiens, UniProt P25942). In words: SPR (Biacore) affinity for human CD40. Type of series: binding. Further details: h-CD40-his; Glu21-Arg193; P25942-1; His; purchased Acrobiosystems Inc. CD0-H5228. Conditions: Human CD40 as mobile phase, antibody captured. The procedure:
(§1) The test antibody was affinity-captured on an anti-human Fc chip, and a series of concentrations of His-tagged human or cynomolgus monkey CD40 antigen were allowed to flow over the chip surface. Reaction signals were detected in real time using a Biacore instrument, and thus binding and dissociation curves were obtained. The buffer used in the experiment was HBS-EP+10× buffer solution (Cat. #BR-1006-69, GE) diluted to 1× (pH 7.4) with D. I. Water. Fitting was performed on the data obtained from the experiment using a (1:1) Binding model to obtain affinity values. 9E6-L4H2 and 2F12-L4H2 have similar binding constants for human CD40 to CFZ533, 9E6-L4H2 has a stronger binding affinity for cynomolgus monkey CD40, and 2F12-L4H2 has a slightly weak binding affinity for cynomolgus monkey CD40.
Background: In SPR one partner is held on a chip, and binding of the other changes the refractive index at the surface.

Series [2] in a line: PK assay in human CD40 transgenic mice. In kind it is in vivo, mouse. Conditions: hCD40 transgenic mice, 10 mg/kg intraperitoneal, plasma. The text has this: The plate was washed three times with wash buffer.
In series [3] the test system is human CD40 transgenic mice. The series can be described thus: Mouse T cell-dependent humoral immune response (TDAR) model. Type of series: in vivo. Conditions: 0.3 mpk BIW ip (IgG1 control 1 mg/kg per Table 15); serum ELISA. As for the experimental part:
On day 0 of the experiment, one of the mice in each group was subjected to blood collection followed by intraperitoneal injection. On day 1, each mouse was intraperitoneally injected with 50 μg of KLH (KLH:complete Freund's adjuvant (CFA)=1:1 emulsified immune complex) for immunization. On day 15 of the experiment, each mouse was intraperitoneally injected with 50 μg of KLH (KLH:incomplete Freund's adjuvant (IFA)=1:1 emulsified immune complex) for a second immunization. Each group was intraperitoneally injected twice a week, and blood samples of about 150 μL were collected from the orbital venous plexus on days 7, 14, 21, and 28. Whole blood was left to stand at room temperature for 1-4 h and centrifuged at 7000 rpm at 4° C. for 10 min to separate serum, and the serum was stored at −80° C. before use.
Mouse serum was separated weekly and assayed by ELISA for the anti-KLH specific IgG level.

For a further series, the system named is Cynomolgus monkey CD40. The series can be described thus: SPR (Biacore) affinity for cynomolgus monkey CD40. In kind it is binding. Conditions: Cynomolgus monkey CD40 as mobile phase. As for the experimental part:
as §1

Series [4] has as its target T1, CD40. The series can be described thus: Agonistic activity in B cell activation assay system without CD40L. Type of series: cell-based. Details: endogenous in cells; host or cells: human PBMCs (CD19+ B cells read out). Conditions: human PBMCs without CD40L, FIG. 4; 9E6-L4H2 and 2F12-L4H2 stated at 2.5 nM. As for the experimental part: CD40, which belongs to the TNF superfamily of receptors, mediates the specific and non-specific activation of downstream signaling pathways upon binding to the ligand CD40L or being cross-linked by antibodies. Therefore, the background agonist activity of CD40 antagonistic antibodies on B cells can be measured without adding CD40L.
Human PBMCs were plated at 2E5/well, 100 μL/well into a 96-well cell culture plate (the medium was RPMI-1640, 10% FBS, 1% penicillin-streptomycin). Serially diluted test antibodies were added at 100 μL/well, and the cells were incubated overnight at 37° C. in 5% CO2. The following day, the plate was centrifuged and the supernatant was removed, and the cells were washed twice with FACS buffer and stained at room temperature for 15 min with 100 μL of Fixable viability dye EF780 diluted at 1:1000. The cells were washed twice and then blocked at room temperature for 10 min with 100 μL of human Fc blocker diluted at 1:200. […] After centrifugation, the supernatant was removed, the cells were washed twice with FACS buffer and then resuspended in 200 μL of PBS, and the fluorescence intensity on the cell surface was measured by flow cytometry (BD FACS Celesta).

Series [5] concerns the target T1, CD40. In words: B cell activation assay system (human PBMCs, CD40L stimulation). Type of series: cell-based. Details: endogenous in cells; host or cells: human PBMCs (CD19+ B cells read out). Conditions: CD40L-his + anti-His overnight. The procedure:
CD40 is highly expressed in B cells, and CD40L, upon binding to CD40, can induce B cell activation and up-regulate the expression of a series of activation markers. CD40 antagonistic antibodies block the binding of CD40L to CD40, thereby eliminating the immune activation process of B cells.
Human PBMCs were plated at 2E5/well, 50 μL/well into a 96-well cell culture plate (the medium was RPMI-1640, 10% FBS, 1% penicillin-streptomycin). Serially diluted test antibodies were added at 50 μL/well, and the cells were co-incubated at 37° C. in 5% CO2 for 0.5 h. CD40L-his and an anti-His antibody were added to each well for overnight stimulation. The following day, the plate was centrifuged, the supernatant was removed, and the cells were washed twice with FACS buffer and stained at room temperature for 15 min with 100 μL of Fixable viability dye EF780 (Invitrogen, 65086514) diluted at 1:1000. The cells were washed twice and then blocked at room temperature for 10 min with 100 μL of human Fc blocker (BD, 564220) diluted at 1:200. After centrifugation, the cells were incubated at 4° C. for 0.5 h with flow cytometry antibodies (PerCP/Cyanine5.5 anti-human CD19 (Biolegend, 302230), and APC anti-human CD69 (Biolegend, 310910)) diluted at 1:200. After centrifugation, the supernatant was removed, the cells were washed twice with FACS buffer and then resuspended in 200 μL of PBS, and the fluorescence intensity on the cell surface was measured by flow cytometry (BD FACS Celesta).
With reference to the method in Example 10, the inhibitory activity of the anti-CD40 antibodies 2F12-L4H2-AAYTE and 9E6-L4H2-AAYTE, which carry the AAYTE mutation in the Fc, in the B cell activation assay system was measured.

For series [6], the system named is human CD40 transgenic mice. The series can be described thus: Mouse skin graft rejection model. Type of series: in vivo. An excerpt:
Male Balb/c mice, 6 weeks old, were purchased from the Laboratory Animal Management Department, Shanghai Institute of Planned Parenthood Research. Housing environment: SPF; certification number: 20180006023393.
On day −2 of the experiment, the mice were intraperitoneally injected with tacrolimus FK506 or CD40 antagonistic antibodies. On day 0 of the experiment, donor Balb/c mice and C57BL6/J mice were anesthetized with 4% chloral hydrate. The tails of the donor mice were removed, and full circles of skin, 1 cm in length, were isolated from the tails. The hair on the acceptor mice's back was removed, and an incision was made along the skin layer. An equal area of skin was removed while preserving the back fat and connective tissue. The donor skin was placed on the acceptor mice's incision site, and the incision was closed with glue. The mice were then placed back in cages to recover.
The mice were dosed according to the administration regimens in Table 17. After 7 days of recovery, the mouse skin survival was observed daily and rejection scores were recorded.

Setting [7] is: 8 days, 3 mpk, scale 3 (no rejection) to 0.

Broadly, the Cmax is the highest concentration seen after dosing.

T1 sequence (P25942 21-277): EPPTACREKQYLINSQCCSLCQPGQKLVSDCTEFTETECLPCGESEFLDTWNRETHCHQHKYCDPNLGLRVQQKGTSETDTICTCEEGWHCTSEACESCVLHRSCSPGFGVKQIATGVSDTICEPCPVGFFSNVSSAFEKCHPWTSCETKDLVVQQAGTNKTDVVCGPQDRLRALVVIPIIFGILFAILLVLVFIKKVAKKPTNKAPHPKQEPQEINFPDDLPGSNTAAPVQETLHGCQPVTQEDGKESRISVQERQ

B1: 2F12-L4H2: humanized anti-CD40 antibody, HC SEQ ID NO: 95, LC SEQ ID NO: 96, human IgG1 N297A, kappa (antibody)
heavy: EVTVKESGPVLVKPTETLTLTCTVSGFSLSSYGVSWIRQPPGKALEWLGGIGSDGSAYYASWAKSRLTISRDTNLKQVVLTMTNMDPVDTATYYCARGGITVYAMWGQGTLVTVSSASTKGPSVFPLAPSSKSTSGGTAALGCLVKDYFPEPVTVSWNSGALTSGVHTFPAVLQSSGLYSLSSVVTVPSSSLGTQTYICNVNHKPSNTKVDKKV[human IgG1 Fc with changes not shown]
light: AFQLTQSPSSLSASVGDRVTITCQASQSISTGLAWYQQKPGKPPKLLIVGASNLASGVPSRFSGSGSGTDFTLTISSLQPEDFATYYCQSYFSSSSTVFGGGTKVEIKRTVAAPSVFIFPPSDEQLKSGTASVVCLLNNFYPREAKVQWKVDNALQSGNSQESVTEQDSKDSTYSLSSTLTLSKADYEKHKVYACEVTHQGLSSPVTKSFNRGEC
modifications: 2F12-L4H2 HC; 2F12-L4H2 LC
In the case of B1, the Ka with CD40 [1] was 758000 M⁻¹ s⁻¹; with Cynomolgus monkey CD40, 1.17e+07 M⁻¹ s⁻¹. In series [2], the “AUC(0-d 14)” value is reported as 12014 (h)*(mg/L). In addition, in series [2], the Cmax came to 88.78 µg/mL. Further, the T½ in series [2] came out at 10.71 days. Besides, the “anti-KLH specific IgG level, Day 7” value in series [3] worked out at 0.22 ± 0.14. In series [3], the “anti-KLH specific IgG level, Day 14” value is recorded as 33.4 ± 25.8. Also, in series [3], the “anti-KLH specific IgG level, Day 21” value is 175.5 ± 103. Further, the “anti-KLH specific IgG level, Day 28” value in series [3] was found to be 805.7 ± 415.6. Besides, in the series with CD40 [4], the “B cell agonistic activity” value is “no significant B cell agonistic activity”. Besides, the “CD19+CD69+ % Maximum inhibition rate” value with CD40 [5] is given as 93%. In addition, the “CD19+CD69+ MFI Maximum inhibition rate” value with CD40 [5] was found to be 111%. For the same molecule, the Skin graft score is reported as 2.9 in series [6] (setting [7]); 2.7 in series [6] (8 days, 10 mpk, scale 3 to 0); 2.4 in series [6] (10 days, 3 mpk, scale 3 to 0); 2.4 in series [6] (10 days, 10 mpk, scale 3 to 0); 0.6 in series [6] (15 days, 3 mpk, scale 3 to 0); 0.9 in series [6] (15 days, 10 mpk, scale 3 to 0). Besides, the Skin graft score in series [6] (20 days, 3 mpk, scale 3 to 0) was determined as 0.1. The “Skin graft survival rate (%)” value in series [6] (Day 15, 3 mpk ip) is given as 28.5%; in series [6] (Day 15, 10 mpk ip) it was 42.9%.

B2: 9E6-L4H2: humanized anti-CD40 antibody, HC SEQ ID NO: 93, LC SEQ ID NO: 94, human IgG1 N297A, kappa (antibody)
heavy: QVQVQESGPGLVKPSDTLSLTCTVSGFSLSSYDMSWIRQPPGKGLEWIGAIGGAGGTYYASWAKSRVTISVDTSLNQVSLKLSSVTAADTAVYYCARGWTRLDLWGQGTLVTVSSASTKGPSVFPLAPSSKSTSGGTAALGCLVKDYFPEPVTVSWNSGALTSGVHTFPAVLQSSGLYSLSSVVTVPSSSLGTQTYICNVNHKPSNTKVDKKV[human IgG1 Fc with changes not shown]
light: DIQLTQSPSFLSASVGDRVTITCQASEDISSNLAWYQQKPGKPPKLLIFPASNLASGVPSRFSGSGSGTEFTLTISSLQPEDFATYYCQGGYWTSTSNFGQGFGGGTKVEIKRTVAAPSVFIFPPSDEQLKSGTASVVCLLNNFYPREAKVQWKVDNALQSGNSQESVTEQDSKDSTYSLSSTLTLSKADYEKHKVYACEVTHQGLSSPVTKSFNRGEC
modifications: 9E6-L4H2 HC; 9E6-L4H2 LC
In the case of B2, the Ka is 413000 M⁻¹ s⁻¹ in the series with CD40 [1] and 514000 M⁻¹ s⁻¹ in the series on Cynomolgus monkey CD40. Moreover, in series [2], the “AUC(0-d 14)” value is 13439 (h)*(mg/L). This molecule also displayed a Cmax in series [2] of 85.8 µg/mL. Further, the T½ in series [2] amounted to 9.45 days. In series [3], the “anti-KLH specific IgG level, Day 7” value is 0.002 ± 0.001. Further, in series [3], the “anti-KLH specific IgG level, Day 14” value is 0.02 ± 0.01. The “anti-KLH specific IgG level, Day 21” value in series [3] was determined as 0. Also, the “anti-KLH specific IgG level, Day 28” value in series [3] is 18.25 ± 8.9. Further, the “B cell agonistic activity” value in the series with CD40 [4] is “no significant B cell agonistic activity”. Also, the “CD19+CD69+ % Maximum inhibition rate” value in the series with CD40 [5] is 98%. Besides, the “CD19+CD69+ MFI Maximum inhibition rate” value with CD40 [5] was found to be 110%. In addition, the Skin graft score in series [6] (setting [7]) was determined as 3; in series [6] (8 days, 10 mpk, scale 3 to 0), 3; in series [6] (10 days, 3 mpk, scale 3 to 0) it was 2.7; in series [6] (10 days, 10 mpk, scale 3 to 0), 2.7; in series [6] (15 days, 3 mpk, scale 3 to 0) it was 0.6; in series [6] (15 days, 10 mpk, scale 3 to 0), 0.3. The Skin graft score in series [6] (20 days, 3 mpk, scale 3 to 0) was 0; in series [6] (20 days, 10 mpk, scale 3 to 0) it was 0. Further, the “Skin graft survival rate (%)” value in series [6] (Day 15, 3 mpk ip) is reported as 28.5%; in series [6] (Day 15, 10 mpk ip), 14.3%.
